Results: the supplement of paper PMC4166925
± gives the standard deviation of the averaged measurements. Over roughly 33,000 sequences, “E-score (dimensionless, -0.5 to 0.5)” has its median near -0.046; the highest 2% begin near 0.36. This is one part of the list.

These sequences were tested on T1, SpTbr T-box DNA-binding domain (GST fusion) (assay: PBM E-score of 8-mer (E-score (dimensionless, -0.5 to 0.5)); Tbr is Tbrain of the sea star Patiria miniata (Pm) or the sea urchin Strongylocentrotus purpuratus (Sp); higher = stronger binding preference; most listed sequences are background and not binding sites). Conditions: the construct has about 5 more residues each side.
T1 sequence: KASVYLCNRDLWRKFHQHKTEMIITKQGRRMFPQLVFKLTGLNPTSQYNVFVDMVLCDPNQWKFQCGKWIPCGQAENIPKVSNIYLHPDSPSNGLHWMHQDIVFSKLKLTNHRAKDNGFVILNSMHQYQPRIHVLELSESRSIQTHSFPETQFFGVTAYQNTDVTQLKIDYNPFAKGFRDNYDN
How it was run: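 GST-fused Tbr T-box DNA-binding domains (the whole T-box plus about five flanking residues) were expressed in BL21 E. coli at 20 °C and purified by glutathione affinity chromatography. Universal Agilent oligonucleotide arrays were made double-stranded by primer extension, incubated with 200 nM protein in PBS (pH 7.5), then scanned and quantified. Every ungapped 8-mer was scored from probe intensities. The Universal PBM Analysis Suite gave each word an enrichment E-score, averaged over duplicate arrays.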

**Q.** With ATACCACC as the sequence, how does the “PBM E-score of 8-mer” value read?
**A.** 0.104 ± 0.026

**Q.** For CATGCTAG, which “PBM E-score of 8-mer” value is on record?
**A.** -0.0781 ± 0.11

**Q.** How did the “PBM E-score of 8-mer” value turn out when CATATGTC was run?
**A.** -0.0101 ± 0.15

**Q.** How did the “PBM E-score of 8-mer” value turn out when CTCTATCC was run?
**A.** -0.183 ± 0.02

**Q.** Which “PBM E-score of 8-mer” value does the source give for CTTGCTCC here?
**A.** -0.016 ± 0.0096

**Q.** For GTCGACTA, which “PBM E-score of 8-mer” value is on record?
**A.** 0.0757 ± 0.0078

**Q.** For GGTTCTAC, which “PBM E-score of 8-mer” value is on record?
**A.** -0.0878 ± 0.052

**Q.** For AATTCAAG, which “PBM E-score of 8-mer” value is on record?
**A.** -0.189 ± 0.065

**Q.** Which “PBM E-score of 8-mer” value does the source give for ACTTGGGA here?
**A.** 0.0129 ± 0.055

**Q.** GCTCAAAA was tested. Which “PBM E-score of 8-mer” value did it give?
**A.** 0.0125 ± 0.064

**Q.** Which “PBM E-score of 8-mer” value does the source give for CTCATGCA here?
**A.** -0.0424 ± 0.071

**Q.** TTATTAAA was tested. Which “PBM E-score of 8-mer” value did it give?
**A.** -0.0454 ± 0.075

**Q.** For GGCATGCC, which “PBM E-score of 8-mer” value is on record?
**A.** -0.091 ± 0.049

**Q.** How did the “PBM E-score of 8-mer” value turn out when ATTTTCTC was run?
**A.** 0.0719 ± 0.0033

**Q.** For AGTAGCCA, which “PBM E-score of 8-mer” value is on record?
**A.** -0.116 ± 0.052

**Q.** AGATTCGA was tested. Which “PBM E-score of 8-mer” value did it give?
**A.** -0.0181 ± 0.0043

**Q.** How did the “PBM E-score of 8-mer” value turn out when AAAGACCT was run?
**A.** -0.0818 ± 0.046

**Q.** GATTGATA was tested. Which “PBM E-score of 8-mer” value did it give?
**A.** 0.0155 ± 0.045

**Q.** How did the “PBM E-score of 8-mer” value turn out when CATGCTGC was run?
**A.** -0.151 ± 0.096

**Q.** Which “PBM E-score of 8-mer” value does the source give for CTGATAGA here?
**A.** -0.171 ± 0.029

**Q.** With CCCTTATA as the sequence, how does the “PBM E-score of 8-mer” value read?
**A.** -0.265 ± 0.0083

**Q.** Which “PBM E-score of 8-mer” value does the source give for AAGGAAAG here?
**A.** -0.0606 ± 0.032

**Q.** CTCAAGTC was tested. Which “PBM E-score of 8-mer” value did it give?
**A.** -0.0664 ± 0.079

**Q.** Which “PBM E-score of 8-mer” value does the source give for AACGGGGC here?
**A.** -0.0487 ± 0.031

**Q.** Which “PBM E-score of 8-mer” value does the source give for CTTGTGAA here?
**A.** 0.353 ± 0.034

**Q.** Which “PBM E-score of 8-mer” value does the source give for AACGTCAA here?
**A.** -0.0258 ± 0.023

**Q.** How did the “PBM E-score of 8-mer” value turn out when AATATGGT was run?
**A.** -0.0209 ± 0.014

**Q.** For ATAGGACC, which “PBM E-score of 8-mer” value is on record?
**A.** -0.165 ± 0.017

**Q.** For AAACGCCA, which “PBM E-score of 8-mer” value is on record?
**A.** 0.121 ± 0.0059

**Q.** Which “PBM E-score of 8-mer” value does the source give for CGTAGTCC here?
**A.** -0.219 ± 0.016

**Q.** For AAGGTGCA, which “PBM E-score of 8-mer” value is on record?
**A.** 0.35 ± 0.01

**Q.** For CAAAGAGG, which “PBM E-score of 8-mer” value is on record?
**A.** 0.00417 ± 0.065

**Q.** How did the “PBM E-score of 8-mer” value turn out when GATTCATA was run?
**A.** -0.14 ± 0.096

**Q.** With AATCGACT as the sequence, how does the “PBM E-score of 8-mer” value read?
**A.** -0.182 ± 0.0061

**Q.** For CTAGGAGC, which “PBM E-score of 8-mer” value is on record?
**A.** 0.0293 ± 0.071

**Q.** Which “PBM E-score of 8-mer” value does the source give for CAATAGCC here?
**A.** -0.0482 ± 0.028

**Q.** For CCTCGCTC, which “PBM E-score of 8-mer” value is on record?
**A.** 0.00354 ± 0.062

**Q.** TGGTTCAA was tested. Which “PBM E-score of 8-mer” value did it give?
**A.** -0.119 ± 0.011

**Q.** Which “PBM E-score of 8-mer” value does the source give for ACGTGACT here?
**A.** 0.0957 ± 0.028

**Q.** For CCTAGCAA, which “PBM E-score of 8-mer” value is on record?
**A.** 0.0777 ± 0.054

**Q.** For GACACGAC, which “PBM E-score of 8-mer” value is on record?
**A.** 0.152 ± 0.033

**Q.** With CGACCGCA as the sequence, how does the “PBM E-score of 8-mer” value read?
**A.** 0.133 ± 0.018

**Q.** AATGACTA was tested. Which “PBM E-score of 8-mer” value did it give?
**A.** -0.0274 ± 0.0033

**Q.** AAGATGAT was tested. Which “PBM E-score of 8-mer” value did it give?
**A.** 0.114 ± 0.036

**Q.** With ATGTGGGG as the sequence, how does the “PBM E-score of 8-mer” value read?
**A.** 0.105 ± 0.066

**Q.** With AGCTGTAG as the sequence, how does the “PBM E-score of 8-mer” value read?
**A.** -0.198 ± 0.05

**Q.** With GCCCCCAA as the sequence, how does the “PBM E-score of 8-mer” value read?
**A.** -0.0939 ± 0.07

**Q.** How did the “PBM E-score of 8-mer” value turn out when ACATTGGT was run?
**A.** 0.143 ± 0.015

**Q.** With GGTAGAAC as the sequence, how does the “PBM E-score of 8-mer” value read?
**A.** -0.0679 ± 0.082

**Q.** Which “PBM E-score of 8-mer” value does the source give for ACTATAAG here?
**A.** -0.0205 ± 0.1

**Q.** How did the “PBM E-score of 8-mer” value turn out when GAGGTGGC was run?
**A.** 0.3855 ± 0.0037

**Q.** TGGATTAA was tested. Which “PBM E-score of 8-mer” value did it give?
**A.** -0.175 ± 0.012

**Q.** For CTCCCGTA, which “PBM E-score of 8-mer” value is on record?
**A.** -0.2068 ± 0.0016

**Q.** AGCCGAAA was tested. Which “PBM E-score of 8-mer” value did it give?
**A.** -0.174 ± 0.01

**Q.** CGCTGACA was tested. Which “PBM E-score of 8-mer” value did it give?
**A.** 0.315 ± 0.045

**Q.** With GGCTTGCA as the sequence, how does the “PBM E-score of 8-mer” value read?
**A.** -0.202 ± 0.012

**Q.** With GTGCTAAC as the sequence, how does the “PBM E-score of 8-mer” value read?
**A.** 0.432 ± 0.012

**Q.** Which “PBM E-score of 8-mer” value does the source give for AATTTACC here?
**A.** -0.186 ± 0.004

**Q.** ATCATATA was tested. Which “PBM E-score of 8-mer” value did it give?
**A.** -0.0878 ± 0.0091

**Q.** CCACAATC was tested. Which “PBM E-score of 8-mer” value did it give?
**A.** 0.0731 ± 0.027

**Q.** Which “PBM E-score of 8-mer” value does the source give for CTCCTATA here?
**A.** -0.123 ± 0.044

**Q.** With CGTGCCTC as the sequence, how does the “PBM E-score of 8-mer” value read?
**A.** 0.0566 ± 0.12

**Q.** With TAAGGACA as the sequence, how does the “PBM E-score of 8-mer” value read?
**A.** -0.102 ± 0.18

**Q.** How did the “PBM E-score of 8-mer” value turn out when GCACTTAC was run?
**A.** 0.208 ± 0.017

**Q.** With GAACTGAA as the sequence, how does the “PBM E-score of 8-mer” value read?
**A.** -0.203 ± 0.0021

**Q.** For AGTCCGGC, which “PBM E-score of 8-mer” value is on record?
**A.** -0.202 ± 0.017

**Q.** With ACATAGAG as the sequence, how does the “PBM E-score of 8-mer” value read?
**A.** 0.0104 ± 0.046

**Q.** Which “PBM E-score of 8-mer” value does the source give for CAGGAAGA here?
**A.** -0.141 ± 0.032

**Q.** For ACGTCTGA, which “PBM E-score of 8-mer” value is on record?
**A.** -0.0348 ± 0.011

**Q.** With ACAATGCT as the sequence, how does the “PBM E-score of 8-mer” value read?
**A.** -0.0281 ± 0.021

**Q.** How did the “PBM E-score of 8-mer” value turn out when CTGACACC was run?
**A.** 0.4611 ± 0.0014

**Q.** How did the “PBM E-score of 8-mer” value turn out when ACGGACCA was run?
**A.** -0.345 ± 0.0098

**Q.** How did the “PBM E-score of 8-mer” value turn out when CAGGGTAG was run?
**A.** -0.0171 ± 0.014

**Q.** For AGTCTACG, which “PBM E-score of 8-mer” value is on record?
**A.** -0.209 ± 0.008

**Q.** How did the “PBM E-score of 8-mer” value turn out when AGCAACAC was run?
**A.** 0.376 ± 0.026

**Q.** With GGTCCACC as the sequence, how does the “PBM E-score of 8-mer” value read?
**A.** -0.057 ± 0.027

**Q.** How did the “PBM E-score of 8-mer” value turn out when AGCTATCA was run?
**A.** -0.08557 ± 0.00069

**Q.** For GTCCAGAC, which “PBM E-score of 8-mer” value is on record?
**A.** -0.0987 ± 0.0032

**Q.** How did the “PBM E-score of 8-mer” value turn out when GAAAGAAA was run?
**A.** -0.109 ± 0.056

**Q.** How did the “PBM E-score of 8-mer” value turn out when GCTACTGA was run?
**A.** 0.0912 ± 0.025

**Q.** For CAGTGACC, which “PBM E-score of 8-mer” value is on record?
**A.** 0.0993 ± 0.0032

**Q.** For CCTGCAAA, which “PBM E-score of 8-mer” value is on record?
**A.** 0.0204 ± 0.04

**Q.** AACGGTAA was tested. Which “PBM E-score of 8-mer” value did it give?
**A.** -0.221 ± 0.085

**Q.** With ACTCCCGA as the sequence, how does the “PBM E-score of 8-mer” value read?
**A.** -0.112 ± 0.069

**Q.** How did the “PBM E-score of 8-mer” value turn out when GTAGGGTA was run?
**A.** 0.0507 ± 0.035

**Q.** How did the “PBM E-score of 8-mer” value turn out when GTAAGCAC was run?
**A.** 0.068 ± 0.023
